Test results: paper PMC4336329 (PLoS ONE, 2015)
The campaign covered roughly 310,000 compounds. About 2,200 (0.71%) showed an effect of 50% or more. Effects have a minus sign here. The list shows a part of the results.

target: human ether-à-go-go-related gene (hERG) potassium channel (human, UniProt Q12809); assay: primary screen, population patch clamp on CHO cells stably expressing hERG
Sequence (Q12809 whole entry, looked up): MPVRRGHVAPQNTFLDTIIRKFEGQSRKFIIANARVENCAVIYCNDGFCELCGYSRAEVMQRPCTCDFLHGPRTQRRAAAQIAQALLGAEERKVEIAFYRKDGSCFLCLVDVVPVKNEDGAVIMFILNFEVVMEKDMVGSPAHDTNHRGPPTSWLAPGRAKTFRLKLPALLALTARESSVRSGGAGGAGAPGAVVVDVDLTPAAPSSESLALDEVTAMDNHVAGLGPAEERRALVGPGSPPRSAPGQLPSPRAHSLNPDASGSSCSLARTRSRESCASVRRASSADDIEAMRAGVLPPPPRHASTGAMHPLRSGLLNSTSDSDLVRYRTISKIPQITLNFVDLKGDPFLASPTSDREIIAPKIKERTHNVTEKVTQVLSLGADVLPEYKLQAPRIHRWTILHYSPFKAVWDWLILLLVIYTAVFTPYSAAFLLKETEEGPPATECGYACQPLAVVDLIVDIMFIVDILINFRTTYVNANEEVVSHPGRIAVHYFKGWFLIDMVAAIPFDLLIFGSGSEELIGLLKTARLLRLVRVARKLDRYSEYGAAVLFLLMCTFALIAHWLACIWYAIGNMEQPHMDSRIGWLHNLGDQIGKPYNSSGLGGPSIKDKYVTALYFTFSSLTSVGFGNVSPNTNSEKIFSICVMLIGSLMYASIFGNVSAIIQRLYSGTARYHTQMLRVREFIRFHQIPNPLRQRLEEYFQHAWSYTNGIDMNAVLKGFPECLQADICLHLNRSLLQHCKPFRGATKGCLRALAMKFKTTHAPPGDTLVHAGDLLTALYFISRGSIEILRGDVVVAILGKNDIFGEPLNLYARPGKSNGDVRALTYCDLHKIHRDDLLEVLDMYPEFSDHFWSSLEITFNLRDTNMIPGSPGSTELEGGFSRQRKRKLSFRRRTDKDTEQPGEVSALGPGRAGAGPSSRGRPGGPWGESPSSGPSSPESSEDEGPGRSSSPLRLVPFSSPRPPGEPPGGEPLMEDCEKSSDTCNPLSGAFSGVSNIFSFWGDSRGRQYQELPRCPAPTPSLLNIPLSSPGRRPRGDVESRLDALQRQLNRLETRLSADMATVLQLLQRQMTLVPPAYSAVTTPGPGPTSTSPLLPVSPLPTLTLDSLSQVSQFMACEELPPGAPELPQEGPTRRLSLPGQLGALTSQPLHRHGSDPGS

| Structure (SMILES) | hERG current change (%, negative = inhibition) at 1uM [%] |
| --- | --- |
| CCc1cccc(CC)c1NC(=S)NCCc1c(C)[nH]c2ccc(C)cc12 | -18.7 |
| NNC(=O)CCN1CCN(C(c2ccccc2)c2ccccc2)CC1 | 4.04 |
| CC(=O)Oc1c(S(=O)(=O)c2ccccc2)c(C)nn1C(C)(C)C | 1.43 |
| COc1cccc(N2CCN(C(=O)C3CCCN(S(=O)(=O)c4cnc[nH]4)C3)CC2)c1 (centres unmarked) | 16.8 |
| COc1ccc(/C=N/NC(=O)c2ccn[nH]2)cc1Cn1cc([N+](=O)[O-])cn1 | 6.72 |
| CC(=O)Nc1ccc(S(=O)(=O)Oc2cccc(N3C(=O)C4CC=CCC4C3=O)c2)cc1 (centres unmarked) | -1.53 |
| CC(=O)Nc1ccc2nc(SCC(=O)O)sc2c1 | 4.65 |
| O=C(O)c1ccc(NCc2ccc(Br)cc2)cc1 | 8.59 |
| CC(=O)c1sc(NC(=O)c2ccc(Br)o2)nc1C | 13.5 |
| Cn1c(=O)c([N+](=O)[O-])c(NC2CCS(=O)(=O)C2)c2ccccc21 (centres unmarked) | 9.6 |
| Cc1cccc(N2C(=O)c3ccc(C(=O)Nc4cccc(C(=O)O)c4)cc3C2=O)c1 | 7.52 |
| Cc1nc2ccccc2n1Cc1ccc(Cl)cc1 | 10.5 |
| COc1cc(NC(=O)c2cc3ccccc3o2)c(OC)cc1Br | 3.27 |
| Cc1occc1C(=O)OCC(=O)Nc1ccc(F)cc1 | 1.79 |
| O=[N+]([O-])c1ccc(Oc2ccc(S(=O)(=O)N3CCOCC3)cn2)cc1 | -1.03 |
| COc1ccc(-c2cc(C(F)(F)F)n3nc(C(=O)NCCCn4ccnc4)cc3n2)cc1 | 6.61 |
| CC1CCCC(NC(=O)C2CCC(CNc3c(N4CCCCC4)c(=O)c3=O)CC2)C1C (centres unmarked) | 13.1 |
| COc1cc2c(cc1OC)-c1n[nH]c(=S)n1C(C)(C)C2 | 13.6 |
| CCN(CCC(=O)O)c1ccccc1 | 8.65 |
| CC(C)Cn1c(SC(C)C(=O)Nc2ccc(N3CCOCC3)cc2)nc2ccccc21 (centres unmarked) | 2.87 |
| Cc1cc(Nc2ccc(C(=O)O)cc2)nc(N)n1 | 22.2 |
| CN1CCCC(OC(=O)c2cc(Br)ccc2Cl)C1.Cl (centres unmarked) | -5.71 |
| Cc1nn(Cc2ccc(C(=O)NC3CCCCC3)o2)c(C)c1Br | 4.68 |

| Structure (SMILES) | hERG current change (%, negative = inhibition) at 1uM [%] |
| --- | --- |
| O=C(Nc1ccccc1N1CCCCC1)c1ccc(F)c(S(=O)(=O)N2CCOCC2)c1 | 5.19 |
| Cc1ccc(S(=O)(=O)C2(C(=O)N3CCCCCC3)CC2)cc1 | -11.3 |
| CCOC(=O)N1CCC(N2CCN(c3ccccc3)CC2)CC1.Cl | 2.64 |
| CCC(C)[C@H](NC(=O)NCc1ccc(Cl)cc1)C(=O)OC (some centres unmarked) | 6.04 |
| Cc1[nH]c2ccccc2c1C(O)c1ccncc1 (centres unmarked) | 14.7 |
| COc1ccc(OCC(=O)Nc2ccc(N3CCN(C(=O)c4ccco4)CC3)cc2)cc1 | 18.7 |
| CCOC(=O)c1c(CN2CCN(C)CC2)oc2ccc(O)cc12 | -8.05 |
| CC(C)(C)SCCNC(=O)CSc1ccccc1 | 10.5 |
| Cc1[nH]c(=O)[nH]c(=O)c1S(=O)(=O)NCCc1ccc(S(N)(=O)=O)cc1 | 13.8 |
| O=C(Cc1nc(-c2cnccn2)no1)NNC(=O)Nc1ccccc1 | 13.1 |
| C[C@]12CC[C@@H]3c4ccc(O)c(O)c4CC[C@H]3[C@@H]1CC[C@@H]2O | 18.6 |
| O=C(Nc1ccc2[nH]c(=O)[nH]c2c1)c1cccc([N+](=O)[O-])c1 | 11.8 |
| CCc1cc2c(NCCO)ncnc2s1 | 14.1 |
| COc1ccc(C)cc1NC(=O)C1CCCCC1C(=O)O (centres unmarked) | 3.5 |
| Cc1cccc(N2CCN(C(=O)c3ccncc3)CC2)c1C | -7.13 |
| Cc1ccc(-c2cc(C(F)(F)F)n3ncc(C(=O)N4CCCCC4c4cccnc4)c3n2)cc1 (centres unmarked) | 8.61 |
| Cn1c(N)c(C(=O)COC(=O)c2cc(C(F)(F)F)nc3ccccc23)c(=O)n(Cc2ccccc2)c1=O | 16.4 |
| CN(CC(=O)Nc1ccccc1Br)C(=O)c1cc(S(=O)(=O)N(C)C)ccc1N1CCCC1 | 3.58 |
| COc1ccc(OCCOC(=O)CNC(=O)c2ccc(Cl)cc2Cl)cc1 | 10.4 |
| CC(=O)OCc1cc(-c2nc3ccccc3[nH]c2=O)nn1-c1ccc(Cl)cc1 | 9.65 |
| COc1ccc(CCNCC(O)COc2ccc(OC)cc2C(C)(C)C)cc1 (centres unmarked) | 12.6 |
| Cc1cc2nncn2c(Cc2ccccc2)n1 | 9.56 |
| CCOc1ccc(CCNS(=O)(=O)c2cccc3nsnc23)cc1OCC | -4.56 |

| Structure (SMILES) | hERG current change (%, negative = inhibition) at 1uM [%] |
| --- | --- |
| CC[C@]1(c2cccc(C)c2)C(=O)N(C(=O)OC)N1C(=O)OC | 6.95 |
| CC1CCN(C(=O)COC(=O)Cc2ccc(Br)cc2)CC1 | 4.59 |
| COc1cc(NC2=Nc3cccc4cccc2c34)cc(OC)c1OC | 9.31 |
| Cc1nc(NCCN2CCOCC2)c2nnn(Cc3c(F)cccc3Cl)c2n1 | 7.62 |
| CN(C)CC(C)(C)CNS(=O)(=O)c1ccc(Cl)cc1.Cl | 6.5 |
| COc1ccc(NC(=O)CSc2ccc3c4c(cccc24)C(=O)c2ccccc2-3)cc1 | 3.99 |
| Cc1cccc(NC(=O)c2nc[nH]c2C(=O)NC2CCN(C(=O)OC(C)(C)C)CC2)c1 | 17.7 |
| CC(C)CC(=O)Nc1nnc(SCC(=O)Nc2ccc(F)cc2)s1 | -14.3 |
| O=C(CNC(=O)c1ccccc1)N=Nc1c(O)[nH]c2ccc(Br)cc12 | 13.7 |
| S=c1nc(C2CC2)n(-c2ccccc2)[nH]1 | 10.1 |
| Cl.c1ccc2c(c1)CCCC2C1=NCCN1 (centres unmarked) | -7.58 |
| CCCCn1c(CNC(C)=O)nc2ccccc21 | 10.8 |
| COc1ccc(/C(C)=N/N=C(N)N)c(O)c1 | 12.9 |
| O=C(/C=C/c1ccco1)Nc1ccccc1N1CCCCC1 | 16.2 |
| CCc1noc(C)c1C(=O)Nc1nc(-c2ccc(Cl)cc2Cl)c(C)s1 | 9.04 |
| CCOP(=O)(OCC)C(Nc1ccc(C)cc1)c1ccco1 (centres unmarked) | 6.53 |
| Cc1ccc(CN(C)S(=O)(=O)c2c(C)noc2/C=C/N(C)C)cc1 | 11.9 |
| Cc1ccccc1OCC(=O)Nc1ccc(C(N)=O)cc1 | 0.85 |
| CCn1c(SCC(=O)Nc2ccccc2C)nnc1-c1ccccc1O | 0.947 |
| COc1ccc(OC)c(-c2csc(NC(=O)C3=NNC(=O)CC3)n2)c1 | 20.6 |
| O=C1CCCC(=O)C1CS(=O)(=O)c1ccccc1 | 14.3 |
| O=C(CN1C(=O)/C(=C\c2ccccc2Cl)Oc2ccccc21)NCc1cccnc1 | 5.85 |
| O=c1cc(CSc2ccccc2)[nH]c(=S)[nH]1 | 11.4 |

| Structure (SMILES) | hERG current change (%, negative = inhibition) at 1uM [%] |
| --- | --- |
| COc1ccc(S(=O)(=O)NC(C)C(=O)NC2CC2)cc1C (centres unmarked) | 4.22 |
| COc1ccc(NC(=O)c2cc(S(=O)(=O)N3CCCC3)oc2C)cc1 | 10.6 |
| CCOC(=O)N1CCC(Nc2c([N+](=O)[O-])cc(C(=O)O)cc2[N+](=O)[O-])CC1 | 17 |
| CCC(=O)Nc1ccc(C(=O)Nc2cccc(C)n2)cc1 | 14.4 |
| COc1ccc(N2C(=O)CC(N3CCOCC3)C2=O)cc1 (centres unmarked) | 16.3 |
| CCC1(CC)NC(=O)N(CC(=O)OCC(=O)Nc2ccccc2OC(F)F)C1=O | 17.8 |
| O=c1c2ccccc2nc(-c2ccccc2)n1O | 5.43 |
| O=C(O)C1C2CCC(C2)C1C(=O)NCCc1cccc(Cl)c1 (centres unmarked) | 14 |
| COCCN1Cc2cccc(C(=O)NCc3ccccn3)c2C1=O | 10.6 |
| COC(OC)c1ccc(C#N)c(SCc2ccccc2)n1 | 12.4 |
| N#C/C(=C\c1ccc(O)c([N+](=O)[O-])c1)C(=O)NCc1ccccc1 | 15.6 |
| COc1ccccc1N1CCN(C(=O)c2cc(-c3cccs3)on2)CC1 | -2.46 |
| COc1cc(C2C(C#N)=C(N)N(N(C)C)C3=C2C(=O)CCC3)cc(OC)c1OC (centres unmarked) | 16 |
| CCOC(=O)N1CCC(N2C(=O)c3ccccc3C2Nc2ccc(C)cc2)CC1 (centres unmarked) | 2.36 |
| CC(=O)c1cccc(NC(=O)C2CCN(S(=O)(=O)c3c(C)n[nH]c3C)CC2)c1.Cl | 1.55 |
| COc1ccccc1CNC(=O)COC(=O)c1ccccn1 | 12.6 |
| COC(=O)c1cc(Nc2cc(C)nc3ncnn23)cc(C(=O)OC)c1 | 5.12 |
| CCC(=O)c1ccc(OCC(=O)OC(C)C(=O)NCc2ccc3c(c2)OCO3)cc1 (centres unmarked) | 18.3 |
| O=C(Nc1cccc(F)c1)C1CCCN(c2cnccn2)C1 (centres unmarked) | 16.7 |
| COc1ccc(NC(=O)c2cccc(N3C(=O)NC4CC3(C)Oc3ccccc34)c2)cc1 (centres unmarked) | 3.52 |
| CC(C)CCSc1nc2c(c(=O)[nH]c(=O)n2C)n1CCCc1ccccc1 | 12.4 |
| Cc1ccc(OCCC(=O)NNC(=O)c2ccccc2F)cc1 | 4.4 |
| COc1cccc(/C=C2\SC(=O)N(CC(=O)NC3C=CS(=O)(=O)C3)C2=O)c1 (centres unmarked) | 2.5 |
